The full ranking holds about 33,000 sequences; the median of “E-score (-0.5 to 0.5)” is about -0.056, and the highest 2% start at about 0.38. This is one part of the list.
Biological target: Stb4 (UniProt P50104)
Assay: PBM E-score (8-mer binding enrichment) (E-score (-0.5 to 0.5)); higher = stronger / more preferred TF binding; most listed sequences are background and not binding sites
Settings: protein concentration: 200 nM; construct: GST-DNA-binding domain
How it was run: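 E-scores (a modified Wilcoxon-Mann-Whitney statistic) were assigned by the Universal PBM Analysis Suite to every ungapped eight-base word pooled with its reverse complement. The input came from universal all-10-mer Agilent arrays made double-stranded by primer extension and probed with GST-tagged yeast transcription factors at about 100-200 nM. Fluorescent anti-GST detected bound protein, and masliner normalised the scans.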

| Sequence | PBM E-score |
| --- | --- |
| ACGATGGC | -0.196 |
| AACAGAAA | -0.122 |
| TACTGGGA | -0.119 |
| AGCGAGGG | -0.234 |
| AGTGCGAC | 0.0915 |
| CGAAAGAA | 0.0769 |
| ACCCGAGG | 0.427 |
| TGTGTTAA | -0.207 |
| ATGGTTTA | 0.193 |
| CCATTATA | -0.00472 |
| CTCGTTGC | -0.194 |
| ACATTTAT | -0.116 |
| GCTCTTTA | -0.0604 |
| ACTGAGAA | -0.0509 |
| GCAACCCC | -0.00033 |
| ACGGACTC | -0.0191 |
| CGGGATTA | 0.365 |
| ATAAATGG | -0.0964 |
| ATGACGAG | -0.104 |
| AGCATTAG | -0.0943 |
| ATCGTTGA | -0.09 |
| ATCGTCAA | -0.0823 |
| CACCTTAG | -0.135 |
| ACCCACGT | -0.135 |
| CTCTCTGC | -0.198 |

| Sequence | PBM E-score |
| --- | --- |
| AAACGGTA | 0.13 |
| CGGACAAG | 0.138 |
| CACTCCCG | 0.335 |
| CTAAGAAG | -0.13 |
| GAGCGACC | -0.138 |
| CAAACCCA | -0.00457 |
| CGTATCCA | -0.124 |
| GAATAGTA | -0.0416 |
| AACACGCC | -0.00358 |
| GGATAAGA | 0.175 |
| AGTAAATC | -0.24 |
| GAAATGTC | 0.118 |
| AAGATTGA | -0.261 |
| GAATAGCC | 0.126 |
| GAAGGACC | 0.0383 |
| AGTGGTTG | -0.172 |
| ACGGCGTG | -0.0208 |
| CGAGTTTC | 0.113 |
| GAGGCTAC | -0.206 |
| AATAGGCA | -0.0588 |
| ATGAACAA | -0.0735 |
| AACAGCGA | -0.213 |
| AGCTGTAT | -0.191 |
| GGACGCGA | -0.163 |
| TAGCAACA | 0.0435 |

| Sequence | PBM E-score |
| --- | --- |
| CCGCTAGC | 0.061 |
| ACCTTACC | 0.0694 |
| ACCAATAG | -0.265 |
| CCTCTGCC | -0.186 |
| AATGCCCG | 0.126 |
| AAGCACCA | -0.28 |
| AGTGCTTG | -0.179 |
| CGAATGTC | 0.038 |
| ATTTGCCG | 0.356 |
| AACATACG | 0.124 |
| CTCTCCTA | -0.148 |
| TCCATGCA | 0.033 |
| AGCACGCT | -0.249 |
| ACTCTACA | -0.0328 |
| CACTCCGA | 0.295 |
| ACGAAGGA | -0.161 |
| ACTGTAGG | -0.127 |
| CTTACGTC | -0.153 |
| TCATTAAA | 0.00667 |
| AAAGGTCG | -0.037 |
| TCTTAAAA | -0.236 |
| GTTATGGA | -0.199 |
| CTTAGTAA | 0.045 |
| AGGCGACC | -0.0143 |
| GATCATCA | -0.0412 |

| Sequence | PBM E-score |
| --- | --- |
| TCACCTGA | -0.168 |
| ATCGATCA | -0.0367 |
| ACAGAAGT | -0.197 |
| CCGTAAAC | 0.116 |
| CCATGGAC | -0.152 |
| GCCAGCCC | -0.121 |
| CCGCAGGA | 0.0463 |
| CGAGCCTC | 0.201 |
| CGCCGATA | 0.27 |
| ACGCCTCT | -0.289 |
| ACGAAGGC | -0.0627 |
| ACCGAAGC | 0.287 |
| ATCGCGCG | 0.0342 |
| GGCCTGAC | 0.0392 |
| ACATTAGG | -0.193 |
| GACAAGCA | -0.0967 |
| AAGCTCGT | -0.187 |
| ATTCTTTC | -0.0171 |
| GAGCGAGA | 0.111 |
| CACTGGAA | -0.237 |
| ACTGGAAA | -0.127 |
| ATGTGGGA | -0.132 |
| GAACATTC | 0.118 |
| AATTTGCG | -0.131 |
| GCTGTACA | -0.0175 |

| Sequence | PBM E-score |
| --- | --- |
| CGAGGGTC | 0.271 |
| GAGGCGAA | 0.115 |
| CTTGACAA | -0.0427 |
| ACTAATTA | -0.131 |
| GCCGATCA | 0.266 |
| GATTCGAA | -0.0188 |
| ACCGGGCT | 0.193 |
| AGATACAC | -0.107 |
| CATCACAC | 0.0112 |
| AGATTGCT | -0.249 |
| CACCATCC | 0.00805 |
| GAACAATC | 0.0612 |
| AAATCAGC | -0.0498 |
| GTTGAATA | 0.0113 |
| AGTGATGC | -0.0769 |
| CATGCAGG | -0.262 |
| CTTCGCCC | -0.0948 |
| CCAACCGG | 0.122 |
| AGTTCCTC | -0.0195 |
| TGGACCAA | -0.0635 |
| ATAGACAC | -0.115 |
| CCCATAAG | -0.0628 |
| AATGGCTA | -0.0824 |
| AGCCTCCT | -0.207 |
| ACCCTAGG | -0.188 |

| Sequence | PBM E-score |
| --- | --- |
| GGGTATGA | 0.15 |
| CCAAAAGA | -0.158 |
| GTTAGCAA | -0.0621 |
| CACCGACG | 0.235 |
| AGGCGAGC | -0.166 |
| ATATCCAC | 0.0551 |
| AAATGAGC | -0.0462 |
| ATTCGGCG | 0.333 |
| AGGCGTAT | -0.27 |
| CGTACCTC | 0.0479 |
| GGCGAACA | -0.00947 |
| CAACGCAA | -0.0807 |
| CGTCGTCC | 0.0384 |
| CCCGGCGG | 0.282 |
| GCTAACAC | -0.0672 |
| ACATGGGG | -0.0245 |
| GTCCGGCA | 0.163 |
| ACGTTTTC | 0.0722 |
| GTCTGAAC | -0.0286 |
| AAGAATTC | -0.0467 |
| AAGGCGAA | 0.00117 |
| AGGCAACC | -0.116 |
| ATTAAAAA | 0.133 |
| TCGTGAGA | 0.0565 |
| AACCAGGC | -0.0888 |

| Sequence | PBM E-score |
| --- | --- |
| CTCGCACC | -0.0226 |
| AAAGGCGC | -0.184 |
| TCAAGTCA | -0.133 |
| ATATGGGG | -0.0196 |
| AAGAAGTA | -0.109 |
| AAGATACA | -0.147 |
| GGTCTGTA | 0.0694 |
| CAGTCCCC | -0.362 |
| ATGGGGGC | -0.301 |
| CACCAAGC | -0.0602 |
| AGAGAGCG | -0.0993 |
| ACTAGACG | -0.169 |
| CACAAATG | -0.269 |
| CAACGGAA | 0.328 |
| GTACGGCA | 0.103 |
| GCGGACCC | 0.14 |
| ACCGGCAT | 0.293 |
| CCAGTGAC | -0.303 |
| ATATGAAC | -0.0878 |
| GTCACGGA | 0.323 |
| CAGATTGG | -0.217 |
| CAACAATA | -0.056 |

Reference: the supplement of paper PMC3334620
